# Source: paper PMC4336329 (PLoS ONE, 2015)
# Out of some 310,000 compounds screened, about 14,000 (4.5%) showed an effect of 50% or more. The effect is printed as a negative number. The list shows a part of the results.
# Molecular target: human ether-à-go-go-related gene (hERG) potassium channel (human, UniProt Q12809)
# Experiment: primary screen, population patch clamp on CHO cells stably expressing hERG
# 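Further: peak tail current of the secondary pulse compared with the same well before compound.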
# Sequence of human ether-à-go-go-related gene (hERG) potassium channel (Q12809 whole entry, looked up): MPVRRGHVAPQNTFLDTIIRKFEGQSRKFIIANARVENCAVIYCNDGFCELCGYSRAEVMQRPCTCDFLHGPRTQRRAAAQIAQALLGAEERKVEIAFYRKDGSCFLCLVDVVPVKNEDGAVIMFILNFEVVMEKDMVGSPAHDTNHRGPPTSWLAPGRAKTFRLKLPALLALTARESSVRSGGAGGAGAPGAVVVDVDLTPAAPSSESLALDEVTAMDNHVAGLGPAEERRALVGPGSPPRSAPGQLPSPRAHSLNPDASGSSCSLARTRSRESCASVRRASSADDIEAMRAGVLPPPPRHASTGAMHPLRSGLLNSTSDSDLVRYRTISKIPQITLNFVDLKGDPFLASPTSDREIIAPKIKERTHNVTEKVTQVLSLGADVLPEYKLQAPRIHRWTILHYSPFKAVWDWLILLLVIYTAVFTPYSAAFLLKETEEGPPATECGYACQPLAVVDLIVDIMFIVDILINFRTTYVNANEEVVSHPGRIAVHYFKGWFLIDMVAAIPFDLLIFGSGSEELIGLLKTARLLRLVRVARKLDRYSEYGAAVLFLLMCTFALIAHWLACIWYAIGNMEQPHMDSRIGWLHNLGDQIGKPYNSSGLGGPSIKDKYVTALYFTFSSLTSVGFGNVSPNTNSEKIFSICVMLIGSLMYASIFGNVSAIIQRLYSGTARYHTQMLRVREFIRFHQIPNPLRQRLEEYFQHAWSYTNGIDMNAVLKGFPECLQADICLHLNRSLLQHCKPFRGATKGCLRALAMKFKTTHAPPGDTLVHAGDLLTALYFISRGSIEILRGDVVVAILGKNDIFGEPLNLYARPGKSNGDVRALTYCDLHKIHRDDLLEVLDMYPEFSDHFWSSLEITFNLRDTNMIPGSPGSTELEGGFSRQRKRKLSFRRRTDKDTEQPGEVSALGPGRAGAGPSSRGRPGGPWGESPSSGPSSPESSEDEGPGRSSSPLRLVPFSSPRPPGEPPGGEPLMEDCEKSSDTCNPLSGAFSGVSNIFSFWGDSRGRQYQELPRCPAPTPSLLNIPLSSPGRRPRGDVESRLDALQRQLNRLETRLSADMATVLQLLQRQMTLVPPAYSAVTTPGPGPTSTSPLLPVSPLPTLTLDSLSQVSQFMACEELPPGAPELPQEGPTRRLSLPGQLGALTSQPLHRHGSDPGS
row,Structure (SMILES),"hERG current change (%, negative = inhibition) at 10uM [%]"
1,COc1cccc(C2CC(c3ccc(Br)cc3)=NN2C(=O)c2ccncc2)c1OC (stereo not shown),-29.7
2,CC(=O)Nc1ccc(C(=O)NN2C(=O)NC3(CCCCC3)C2=O)cc1,-6.63
3,COc1ccc(CCNC(=S)Nc2ccc(S(=O)(=O)Nc3ncccn3)cc2)cc1OC,21.2
4,COc1ccc(C(=O)N2CCCC(CCC(=O)NCc3ccc(F)c(F)c3)C2)cc1F (stereo not shown),-22.8
5,CCC(C)(C)NC(=O)C(NS(=O)(=O)c1cccs1)c1ccccc1 (stereo not shown),15.3
6,COc1ccc(OC)c(-c2csc(NC(=O)COC(=O)C3CC3)n2)c1,-7.02
7,CC1CCN(S(=O)(=O)c2ccc(NC(=O)C3CCN(C(=O)c4ccco4)CC3)cc2)CC1,-3.5
8,CC1(C)C=C2C(=NN(c3ccccc3)C(N)=C2C#N)CO1,4.09
9,CCCCOc1ccc(C(=O)NCC(=O)N2CC=C(c3ccccc3)CC2)cc1,16.8
10,Cc1ccc(S(=O)(=O)NCc2ccc(C(=O)NCCCN3CCC(Cc4ccccc4)CC3)cc2)cc1,-80.6
11,COc1ccc(N2CCN(CCNC(=O)Nc3ccc([N+](=O)[O-])cc3OC)CC2)cc1,-17.1
12,O=C(COC(=O)C1CCCCC1)Nc1ccc(N2CCCCC2)cc1,2.16
13,O=C1NC(=S)N/C1=C/c1cccc2ccccc12,8.5
14,O=C(NCc1cccs1)c1csc2ccccc12,4.73
15,COCCn1cnc2c1c(=O)n(CC(=O)OCC(=O)NCC(F)(F)F)c(=O)n2Cc1ccccc1,4.6
16,Cc1cccc(N(C(=O)Cn2nnc(-c3ccccc3F)n2)C(C(=O)NC(C)(C)C)c2ccncc2)c1 (stereo not shown),37.7
17,NC(=O)COC(=O)CNC(=O)c1sc2ccccc2c1Cl,5.68
18,O=C1CCC([N+](=O)[O-])C(c2ccc3c(c2)OCO3)N1 (stereo not shown),23.9
19,CCC(=O)N1CCc2cc(S(=O)(=O)N3CCc4ccccc4C3)ccc21,5.05
20,COCCNCCCOc1ccc(Br)cc1Cl.O=C(O)C(=O)O,-31.8
21,Cc1ccc(/C=N/N(Cc2ccccc2)c2ccccc2)o1,8.81
22,O=C(O)c1cc(-c2cccs2)[nH]n1,15.5

row,Structure (SMILES),"hERG current change (%, negative = inhibition) at 10uM [%]"
1,CCCCn1c(N)c(N(C(=O)CSc2nnnn2-c2ccccc2)C2CCCC2)c(=O)[nH]c1=O,3.15
2,COc1ccc(CCC(=O)O)cc1OC,10.6
3,Cc1ccnc(NC2OC(=O)c3ccccc32)c1 (stereo not shown),21.8
4,CCc1ccccc1NC(=O)CN1CCN(CC(=O)NCc2ccc(Cl)cc2)CC1,-46.6
5,COc1ccc(CN(C(=O)/C=C/c2ccco2)C2CCS(=O)(=O)C2)cc1OC (stereo not shown),4
6,CCOc1ccccc1OCCC(=O)OCC(=O)Nc1c(C)cc(C)cc1C,-1.42
7,COc1cccc(O)c1CN1CCCC(C(=O)c2sccc2C)C1 (stereo not shown),-45.9
8,CC1(C)Cc2c(sc3nc4n(c(=O)c23)CCC4)CO1,11.2
9,O=C(O)c1cccc(NS(=O)(=O)c2cccc(C(=O)Nc3ccccc3[N+](=O)[O-])c2)c1,-1.45
10,CCCC(c1nnnn1CC1CCCO1)N1CCN(c2nc3ccccc3s2)CC1 (stereo not shown),-16.6
11,CCC(C)(C)NC(=O)C(c1ccc(F)cc1)N(Cc1ccco1)C(=O)CCC(=O)Nc1ccccn1 (stereo not shown),-13.7
12,Cc1cc([N+](=O)[O-])c(C)cc1-c1ccc(/C=N/n2cnnc2)o1,-4.65
13,Cc1cc(S(=O)(=O)N2CCOCC2)ccc1F,-0.7
14,CC1=C(C(=O)Nc2ccccc2)C(c2ccc(C)o2)N2C(=O)CSC2=N1 (stereo not shown),13.4
15,COc1ccc2c(/C=N/NS(=O)(=O)c3ccc(C)cc3)c[nH]c2c1,2.46
16,CC1(C)CC(=O)c2cnc(NC(=O)CSc3nc4ccccc4o3)nc2C1,12.5
17,Cc1csc2nc(CNS(=O)(=O)c3ccc(-c4ccccc4)cc3)cn12,2.36
18,COc1cc(/C=C(\C#N)c2nc3ccccc3s2)ccc1OCC(=O)Nc1ccccc1,6.42
19,CCC(C(=O)Nc1cccnc1Cl)c1ccccc1 (stereo not shown),2.22
20,CN(C(=O)C(C)(C)C)C1c2c(ccc3ccccc23)OCC1CO (stereo not shown),2.47
21,CCOC(=O)c1cc(C#N)c(SCC(=O)c2cc(C#N)c(SC)nc2C)nc1C,-3.38
22,COc1cccc(CN(CC(=O)NCC2CCCO2)C(=O)CNS(=O)(=O)c2ccccc2)c1 (stereo not shown),7.52

row,Structure (SMILES),"hERG current change (%, negative = inhibition) at 10uM [%]"
1,O=C1C=C(O)c2cccc(O)c2C1=O,22.3
2,Cc1ccc2nsnc2c1NC(=O)CCc1ccccc1,-4.75
3,Cc1nn2c(COc3ccc(NC(=O)c4ccccc4Cl)cc3)nnc2c2ccccc12,-1.12
4,Cc1ccc(NC(=O)c2cc(Cl)ccc2[N+](=O)[O-])cc1C,-5.95
5,CS(=O)(=O)c1ccc(S(=O)CC(=O)Oc2ccc(Cl)cc2)c([N+](=O)[O-])c1 (stereo not shown),3.87
6,Cl.O=C(NCCN1CCCC1)c1cccc(Cl)c1,-51.6
7,COc1ccc(CCNC(=O)c2ccc3c(c2)NC(=O)CS3)cc1OC,0.116
8,CCCC[C@@H]1CNC(=O)C(=O)N1CCc1cc(C(F)(F)F)cc(C(F)(F)F)c1,-38.8
9,O=C(/C=C/c1ccc2c(c1)OCO2)c1c(O)n(CCC2=CCCCC2)c(=O)[nH]c1=O,17.5
10,COC(=O)c1cc(OC)c(OC)cc1NC(=O)CSc1nnc(-c2cccnc2)n1C,-7.74
11,Cc1ccc(Cn2nnc3c(=O)[nH]c(C4CCN(S(=O)(=O)c5ccc(S(=O)(=O)NC6CC6)cc5)CC4)nc32)cc1,-8.02
12,CCc1ccccc1N(CC(=O)Nc1cccnc1)S(=O)(=O)c1ccccc1,18.6
13,O=C(CCNC(=O)Cn1cnc2ccccc2c1=O)NCC1COc2ccccc2O1 (stereo not shown),6.81
14,O=c1[nH]c(CSc2nc3ccccc3[nH]2)nc2c1cnn2-c1ccccc1,-17.6
15,COc1ccccc1/C=C/C=N/NC(=O)CC1C(=O)NN=C1C (stereo not shown),8.83
16,O=C(Cc1ccc(F)cc1)Nc1ccccc1N1CCCC1,-4.99
17,Cc1ccc(C)c(N2CCN(C(c3ccncc3)c3nnnn3Cc3ccccc3)CC2)c1.Cl (stereo not shown),-3.25
18,CC(=O)N1CCN(C(=O)c2cc(=O)c3ccccc3o2)CC1,26.2
19,O=C(Cn1ccccc1=O)c1cccs1,12.4
20,O=C(OCCc1ccccc1)c1cc(O)c(O)c(O)c1,15.2
21,Cc1cc2oc(=O)cc(CN3CCN(C/C=C/c4ccccc4)CC3)c2cc1O,-80.9
22,O=C(Nc1cccc(Cl)c1)Nc1nc(-c2ccc(Cl)cc2)cs1,-0.913

row,Structure (SMILES),"hERG current change (%, negative = inhibition) at 10uM [%]"
1,Cc1ccc(SCCNC(=S)Nc2cc(C)ccc2C)cc1,4.34
2,CC(=O)NCCn1c(SCC(=O)OCc2ccccc2)nc2ccccc2c1=O,-60.2
3,CCCCn1c(SCC(=O)Nc2ccc(OC)cc2)nc2ccc(N3CCOCC3)cc2c1=O,-6.99
4,N#CC1CC(c2ccccc2)=NN1c1ccccc1[N+](=O)[O-] (stereo not shown),12.6
5,CCc1ccc(OCCOCC(O)CN(CCO)CCO)cc1.Cl (stereo not shown),0.477
6,COc1ccc(NC(=S)N2CCN(C/C=C/c3ccccc3)CC2)cc1,-24.1
7,Cc1cc2cc(CNC(=O)Nc3ccccc3)ccc2n1C,6.94
8,COc1ccc(C(=O)NCc2ccc3c(c2)CCO3)cc1,7.15
9,Cc1csc(C(=O)O)c1NC(=O)c1c(Cl)cccc1Cl,6.61
10,O=C(COC(=O)[C@@H]1CCCN1S(=O)(=O)c1ccccc1F)Nc1ccc(OC(F)F)cc1,-61.7
11,C=CCn1c(SCC(=O)c2[nH]c(C)c(C(C)=O)c2C)nnc1-c1ccncc1,-6.63
12,CCOC(=O)c1nc(C)n(-c2cc(Cl)cc(Cl)c2)n1,-17.5
13,S=c1[nH]nc(-c2ccccc2)c2ccccc12,1.61
14,Cn1c(SCC(=O)c2ccccc2)nnc1-c1ccc(O)cc1,-11.2
15,Cl.N=c1n(CCN2CCCCC2)c2ccccc2n1CC(O)c1ccc(Cl)c(Cl)c1 (stereo not shown),-105
16,CNc1snc(C)c1C(=O)OCC(=O)N(C)Cc1ccccc1,7.69
17,N#CC(C#N)=C1C=CC=CN1/C(=C\c1ccccc1)C(=O)c1cccs1,5.13
18,Cc1nn(C)cc1/C=N\NC(=O)c1ccc(Cn2cc(Cl)cn2)cc1,4.85
19,Cc1ccccc1CNCc1cccnc1,3.68
20,CCN(CC)c1ccc(/C=N\NC(N)=O)cc1,-11.7
21,Cn1c(SCC(=O)N2CCOCC2)nnc1-c1ccco1,17.3
22,CC(C)CCNC(=O)Cc1csc(-c2ccccc2)n1,14.9
